# In all, about 390,000 compounds went through this assay and about 2,200 (0.56%) were called active. Inconclusive results, whose numbers are uncertain, are shown with a selection of clear calls. Calls follow the shape of the dose curve; as a rule, active = well fitted inhibition curve with a large enough effect; inconclusive = small, poorly fitted or top-dose-only effect; inactive = no such curve, though single readings can be large or run the other way. Potencies beside an inconclusive call are fits to weak or partial responses and may not hold up.
# Biological target: Chromobox protein homolog 1 (Homo sapiens) (UniProt P83916)
# Assay: HTS for Inhibitors of HP1-beta Chromodomain Interactions with Methylated Histone Tails; also: nearly all actives have a fitted effect of over 70% in size
# Settings: AlphaScreen HP1-beta / biotin-H3K9me3 peptide binding; series mostly up to 114 µM; activity change, negative = inhibition: at the top concentration
# How it was run: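 AlphaScreen: HP1-beta (50 nM) preformed 30 min with biotin-H3(1-18)K9me3 peptide (50 nM) in PBS pH 7.4, 0.01% Tween-20. Compound added for 30 min at RT, then streptavidin donor/nickel chelate acceptor beads (10 ug/mL) for 30 min.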
# Potency is read from the fitted curve at half-maximal effect; tags tell the direction and shape of the fitted curve.
# Chain of UniProt P83916 (P83916 whole entry, looked up): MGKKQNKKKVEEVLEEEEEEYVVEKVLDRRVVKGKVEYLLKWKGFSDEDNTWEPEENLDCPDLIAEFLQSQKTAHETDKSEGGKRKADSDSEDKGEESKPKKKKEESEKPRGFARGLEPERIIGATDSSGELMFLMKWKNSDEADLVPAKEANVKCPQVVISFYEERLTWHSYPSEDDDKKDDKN
Compound,"activity change, negative = inhibition",Potency
CC(=O)N1c2ccccc2C(=O)C1N(C)c1ccc(C)cc1 (stereo unspecified),inactive: 33.8%,–
Cc1ccc2c(c1)C(=O)C(=O)N2Cc1ccc(OC(C)C)cc1,–,"inconclusive: 17.8 µM [inhibitor, partial curve]"
C=CC[n+]1c(C)csc1Nc1cccc(Br)c1,–,"inconclusive: 25.1 µM [inhibitor, full curve]"
O=C(O)c1ccc2[nH]c3c(c2c1)CCCC3,inactive: 8.93%,–
O=C(Nc1ccc(N2CCCC2)c(Cl)c1)c1ccc([N+](=O)[O-])o1,–,"inconclusive: 50.1 µM [inhibitor, partial curve]"
CCOc1ccc(-c2nc(CSc3nnc(N)s3)cs2)cc1,inactive: 10.2%,–
C=Cc1ccc(CSc2nnc(C)n3c2cc2occc23)cc1,–,"inconclusive: 20 µM [inhibitor, partial curve]"
CCc1ccc(NC(=O)c2ccc(-n3cncn3)c([N+](=O)[O-])c2)cc1,inactive: 13.4%,–
CCc1[nH]c(=O)[nH]c1C(C)S(=O)(=O)c1ccc(C)cc1 (stereo unspecified),–,"inconclusive: 44.7 µM [inhibitor, partial curve]"
CCCCn1c(NC(=S)Nc2ccccc2)nc2ccccc21,–,"inconclusive: 50.1 µM [inhibitor, partial curve]"
Cc1oc(-c2cccc3ccccc23)nc1CN1CCN(c2ncnc3ccccc23)CC1,–,"inconclusive: 50.1 µM [inhibitor, partial curve, poor fit]"
CC(C)NCCCOc1ccc(C(C)(C)c2ccccc2)cc1,–,"inconclusive: 70.8 µM [inhibitor, single point]"
CCOC(=O)c1c(-c2ccccc2)csc1NC(=O)c1nc(S(=O)(=O)CC)ncc1Cl,–,"inconclusive: 8.91 µM [inhibitor, partial curve]"
O=C(CN1C(=O)NC2(CCCC2)C1=O)NCCN1C(=O)S/C(=C\c2ccccc2F)C1=O,inactive: 18.6%,–
O=C(O)c1cc(-c2ccc(/C=C3\NC(=O)N(c4ccc(Cl)cc4)C3=O)o2)ccc1Cl,–,"inconclusive: 39.8 µM [inhibitor, partial curve]"
CCOc1ccccc1C=C1SC(=S)NC1=O,–,"inconclusive: 56.2 µM [inhibitor, partial curve, poor fit]"
COc1ccc(NC(C)C(=O)N/N=C/c2ccccc2OCc2cccc(Br)c2)cc1 (stereo unspecified),–,"inconclusive: 14.1 µM [inhibitor, full curve]"
CN(C)CCN(Cc1ccco1)C(=O)c1oc2ccccc2c1NC(=O)COc1ccccc1,–,"inconclusive: 28.2 µM [inhibitor, full curve]"
CN(C(=O)CSc1nc2c(c(=O)[nH]1)CCCC2)C1CCCCC1,inactive: -24.2%,–
N#Cc1ccccc1CN1C(=O)S/C(=C/c2cccn2-c2cccc(C(=O)O)c2)C1=O,–,"inconclusive: 56.2 µM [inhibitor, partial curve, poor fit]"
O=C(Nc1ccc2c(c1)OCO2)c1ccccn1,–,"inconclusive: 70.8 µM [inhibitor, partial curve]"
CCn1c(SCCN2CCCCC2)nnc1-c1ccc(S(=O)(=O)N2CCOCC2)cc1,–,"inconclusive: 15.8 µM [inhibitor, full curve]"

Compound,"activity change, negative = inhibition",Potency
CC(C)Cn1c(SCC(=O)N(C)c2c(N)n(Cc3ccccc3)c(=O)[nH]c2=O)nc2ccccc21,–,"inconclusive: 89.1 µM [inhibitor, single point]"
COc1ccc(NS(=O)(=O)c2ccc3oc(=O)ccc3c2)cc1,inactive: 59.3%,–
Cc1ccc(S(=O)(=O)N2CCOCC2)cc1NC(=O)CN1CCN(c2ccc(O)cc2)CC1,–,"inconclusive: 89.1 µM [inhibitor, single point]"
CCN(CC)S(=O)(=O)c1cc(OC)ccc1N=Nc1ccc(O)c2ncccc12,–,"inconclusive: 11.2 µM [inhibitor, full curve]"
COc1ccc(N2CSC3=C(C#N)C(c4cc(OC)ccc4OC)CC(=O)N3C2)c(OC)c1 (stereo unspecified),–,active: 15.8 µM
COc1cc(/C=N/n2c(-c3ccc4c(c3)NC(=O)CO4)csc2=Nc2cccc(C)c2)ccc1O,–,"inconclusive: 22.4 µM [inhibitor, full curve]"
COc1cc(C(CCN2CCCCC2)c2c(OC)cc(OC)c3c2OC(=O)CC3c2ccc(N(C)C)cc2)cc(OC)c1OC (stereo unspecified),–,"inconclusive: 44.7 µM [inhibitor, full curve, poor fit]"
C=Cc1ccc(C(=O)N2CCCC(CCC(=O)N3CCN(c4ccccn4)CC3)C2)cc1 (stereo unspecified),–,"inconclusive: 56.2 µM [inhibitor, partial curve, poor fit]"
CCNc1ccc(C(=O)OCC(=O)N(Cc2ccccc2)C(C)(C)C)cc1[N+](=O)[O-],inactive: 21.6%,–
C#CCOCCOCCOCCNc1nc(N2CCN(C(=O)[C@H](Cc3cc4ccccc4[nH]3)n3cc([C@@H](N)CC(C)C)nn3)CC2)nc(N2CCN(C(=O)[C@H](Cc3cc4ccccc4[nH]3)n3cc([C@@H](N)CC(C)C)nn3)CC2)n1,–,"inconclusive: 50.1 µM [inhibitor, partial curve, poor fit]"
Cc1ccc(S(=O)(=O)N(C(=O)c2ccncc2)c2ccc(OC(=O)c3ccncc3)c3ccccc23)c(C)c1,–,"inconclusive: 28.2 µM [inhibitor, full curve]"
CC(C)CNc1nc(Oc2ccc(OCC(N)=O)nn2)nc(N2CCOCC2)n1,inactive: 32.5%,–
O=C(CN1CCSCC1)N/N=C/c1ccc(F)c(F)c1,–,"inconclusive: 50.1 µM [inhibitor, single point]"
CCOC(=O)c1cc(-c2ccccc2)n(CCC(=O)Nc2ccc(Cl)c(C(F)(F)F)c2)c1C,inactive: 46.4%,–
COc1ccc(NC(=O)C2CCCN(S(=O)(=O)c3ccc4c(c3)CCCN4C(C)=O)C2)cc1Cl (stereo unspecified),inactive: 49.8%,–
CCOC(=O)N1CCc2c(sc(NCc3ccc(OC)c(OC)c3OC)c2C(=O)Nc2ccc(OC)cc2OC)C1,–,"inconclusive: 20 µM [inhibitor, full curve]"
COc1ccc(C(c2c(C)[nH][nH]c2=O)c2c(C)[nH][nH]c2=O)cc1Br,inactive: 13.1%,–
Nc1cc(=O)[nH]c(SCc2ccc(Cl)cc2)n1,–,"inconclusive: 39.8 µM [inhibitor, single point]"
O=C(CN1CCN(Cc2ccccc2)CC1)NC(c1ccccc1)c1ccccc1,–,"inconclusive: 14.1 µM [inhibitor, partial curve, poor fit]"
CN(C)c1ccc(C2Nc3cccc4cccc(c34)N2)cc1,–,"inconclusive: 31.6 µM [inhibitor, partial curve]"
N#C/C(=C\c1ccc(OCc2ccccc2)cc1)C(N)=O,–,"inconclusive: 25.1 µM [inhibitor, partial curve, poor fit]"
C=CCc1cc(Cl)ccc1OCCn1ccnc1,–,"inconclusive: 17.8 µM [inhibitor, full curve]"

Compound,"activity change, negative = inhibition",Potency
CC(C)c1nnc(NC(=O)CC(C)c2ccccc2)s1 (stereo unspecified),inactive: 38.7%,–
C/C(CC(=O)Nc1ccc(N(C)C)cc1)=N\NC(=O)c1ccc([N+](=O)[O-])cc1Cl,–,"inconclusive: 39.8 µM [inhibitor, full curve]"
OC(CNCCC1C=Nc2ccccc21)Cn1c2ccc(Cl)cc2c2cc(Cl)ccc21 (stereo unspecified),–,"inconclusive: 56.2 µM [inhibitor, partial curve, poor fit]"
O=S(=O)(c1ccccc1F)N1CCN(Cc2nc3ccccc3[nH]2)CC1,–,"inconclusive: 44.7 µM [inhibitor, partial curve]"
Oc1ccc(Br)cc1/C=N/n1c(COc2ccccc2)n[nH]c1=S,–,"inconclusive: 28.2 µM [inhibitor, partial curve]"
O=C(/C=C/c1ccccc1Cl)c1ccccc(=O)c1O,–,"inconclusive: 50.1 µM [inhibitor, single point]"
Cc1c(NC(=O)CSc2ccc3c(c2)OCCO3)c(=O)n(-c2ccccc2)n1C,–,"inconclusive: 50.1 µM [inhibitor, partial curve, poor fit]"
Clc1ccc(CN2CCC(Cc3ccccc3)CC2)cc1,–,"inconclusive: 25.1 µM [inhibitor, partial curve]"
CN(C)S(=O)(=O)c1cccc(-c2nnc(SCc3cc(Cl)cc4c3OCOC4)n2N)c1,–,"inconclusive: 20 µM [inhibitor, partial curve, poor fit]"
O=C(CC(c1cccs1)N1Cc2ccccc2C1=O)Nc1ccc(F)c(Cl)c1 (stereo unspecified),inactive: 41%,–
O=C(CC(c1ccccc1)c1ccccc1)Nc1ncn[nH]1,inactive: 36%,–
CNC(=O)CSc1nnc(-c2ccco2)n1-c1cccc(C)c1C,–,"inconclusive: 89.1 µM [inhibitor, single point]"
O=C(CC1C(=O)NCCN1Cc1cccc(C(F)(F)F)c1)NCCc1cnccn1 (stereo unspecified),inactive: 14.1%,–
Cc1ccc(C(=O)O)cc1-c1ccc(C=C2C(=O)c3ccccc3C2=O)o1,–,active: 39.8 µM
CCN(CC)/[N+]([O-])=N/Oc1cc(O/[N+]([O-])=N/N2CCCC2CO)c([N+](=O)[O-])cc1[N+](=O)[O-] (stereo unspecified),–,"inconclusive: 14.1 µM [inhibitor, full curve, poor fit]"
CC(C)c1ccc(S(=O)(=O)c2cnc(SCC(=O)Nc3cccc(C(F)(F)F)c3)nc2N)cc1,inactive: 21.9%,–
Cc1ccc(CNC(=O)c2nnc(Cc3cccc(F)c3)o2)cc1,inactive: 81.6%,–
COc1ccc(-c2cc(-c3ccc(OC)cc3)nc(-c3ccc4c(c3)NC(=O)CO4)c2)cc1,inactive: 26.8%,–
CCn1c2ccccc2c2cc(/C=C(/C#N)C(N)=S)ccc21,–,"inconclusive: 15.8 µM [inhibitor, full curve, poor fit]"
O=C(COC(=O)C1CCC1)Nc1ccc(Cl)cn1,inactive: -21.6%,–
O=C(Nc1ccnn1C1CCN(C(=O)c2cc(Cl)ccc2F)CC1)C1CCOC1 (stereo unspecified),inactive: 33.5%,–
CCOc1cc(N2CCOCC2)c(OCC)cc1NC(=O)c1cc(-c2ccco2)nc2ccccc12,–,"inconclusive: 39.8 µM [inhibitor, partial curve, poor fit]"
